Laboratory results taken from article PMC3261159.
No constants are given. Whether binding was seen depends on the method and setting. In cells and extracts the contact can be indirect. Some results given as binding are weak or reduced against the parent protein; the word gives no strength.

Chains of the proteins cited; added tags and fusions are not shown. Lines headed by an entry give the natural chain unless they say otherwise; changes in a name come on top. A line that says so, or that is headed by a name, gives the form on record, which may keep a tag or linker.
UniProt P63104: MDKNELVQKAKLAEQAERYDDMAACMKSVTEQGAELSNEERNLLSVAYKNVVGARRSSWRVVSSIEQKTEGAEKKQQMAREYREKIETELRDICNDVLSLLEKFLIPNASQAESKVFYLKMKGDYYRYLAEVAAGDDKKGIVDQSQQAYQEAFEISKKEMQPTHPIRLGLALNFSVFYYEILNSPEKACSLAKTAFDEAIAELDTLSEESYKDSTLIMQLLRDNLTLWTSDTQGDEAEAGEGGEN
UniProt P40763: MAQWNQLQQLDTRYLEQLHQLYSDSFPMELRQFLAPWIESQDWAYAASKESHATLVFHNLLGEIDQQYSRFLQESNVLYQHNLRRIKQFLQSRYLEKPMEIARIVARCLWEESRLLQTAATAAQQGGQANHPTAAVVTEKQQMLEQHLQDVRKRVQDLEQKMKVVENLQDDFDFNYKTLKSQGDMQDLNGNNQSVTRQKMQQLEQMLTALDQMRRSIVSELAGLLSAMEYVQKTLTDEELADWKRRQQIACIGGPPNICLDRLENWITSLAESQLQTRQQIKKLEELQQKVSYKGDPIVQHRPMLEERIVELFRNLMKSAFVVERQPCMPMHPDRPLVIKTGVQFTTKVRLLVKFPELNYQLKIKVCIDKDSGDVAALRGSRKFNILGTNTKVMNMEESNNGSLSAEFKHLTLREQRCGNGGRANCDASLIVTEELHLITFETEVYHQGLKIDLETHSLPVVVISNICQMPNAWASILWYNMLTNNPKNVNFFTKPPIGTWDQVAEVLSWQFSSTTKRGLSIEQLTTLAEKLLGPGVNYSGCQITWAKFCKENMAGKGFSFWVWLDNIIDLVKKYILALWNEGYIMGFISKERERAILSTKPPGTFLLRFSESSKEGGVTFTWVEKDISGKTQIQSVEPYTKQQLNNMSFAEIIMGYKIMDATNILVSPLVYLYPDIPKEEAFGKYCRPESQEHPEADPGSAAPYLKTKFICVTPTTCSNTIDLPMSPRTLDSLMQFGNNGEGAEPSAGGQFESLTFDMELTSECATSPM
myc-Stat3 (688–770) S727A (P40763, form named): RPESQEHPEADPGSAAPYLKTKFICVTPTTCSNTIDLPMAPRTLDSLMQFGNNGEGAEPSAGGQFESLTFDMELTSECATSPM
UniProt P62258: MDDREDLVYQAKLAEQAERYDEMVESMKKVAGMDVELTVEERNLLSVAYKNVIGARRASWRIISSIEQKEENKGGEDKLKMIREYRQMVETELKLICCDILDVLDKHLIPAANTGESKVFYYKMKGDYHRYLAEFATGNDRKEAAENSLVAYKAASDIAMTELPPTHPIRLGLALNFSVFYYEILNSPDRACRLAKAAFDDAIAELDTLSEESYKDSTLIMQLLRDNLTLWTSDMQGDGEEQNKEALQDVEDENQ
UniProt P31946: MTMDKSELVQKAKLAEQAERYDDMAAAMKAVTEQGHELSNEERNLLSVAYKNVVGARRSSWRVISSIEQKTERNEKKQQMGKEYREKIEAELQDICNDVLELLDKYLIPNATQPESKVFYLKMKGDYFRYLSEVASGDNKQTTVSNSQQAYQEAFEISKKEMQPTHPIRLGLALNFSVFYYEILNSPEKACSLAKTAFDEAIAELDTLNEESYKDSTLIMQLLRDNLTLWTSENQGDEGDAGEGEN

Columns and labels:
HA-14-3-3ζ (human) = HA-14-3-3ζ (human) (UniProt P63104); experiment: co-IP; U266 cells transfected with Myc-Stat3 constructs and HA-14-3-3ζ; anti-HA immunoprecipitates analysed by Western blot with Myc antibody
Myc-Stat3 (human) = Myc-Stat3 (human) (UniProt P40763); experiment: co-IP; U266 cells transfected with Myc-Stat3; lysate in phosphatase assay buffer A (50 mM Tris-Cl pH 7.5, 150 mM NaCl, 1 mM EDTA, 0.25% Nonidet P-40); immunoprecipitate analysed by Western blot (sample of the R18 competition)
[1] = target: signal transducers and activators of transcription 3 (Stat3) (human (endogenous in U266)) (UniProt P40763); experiment: co-IP; endogenous proteins in U266 cell lysate; IP with 14-3-3 isoform specific antibodies or Stat3 antibody overnight at 4°C, Protein A/G Plus beads; lysis buffer 150 mM NaCl, 10 mM HEPES pH 7.5, 0.2% Nonidet P-40; Western blot
[2] = target: T1, 14-3-3η (human (endogenous in U266)) (UniProt Q04917); experiment: as above
T1 sequence: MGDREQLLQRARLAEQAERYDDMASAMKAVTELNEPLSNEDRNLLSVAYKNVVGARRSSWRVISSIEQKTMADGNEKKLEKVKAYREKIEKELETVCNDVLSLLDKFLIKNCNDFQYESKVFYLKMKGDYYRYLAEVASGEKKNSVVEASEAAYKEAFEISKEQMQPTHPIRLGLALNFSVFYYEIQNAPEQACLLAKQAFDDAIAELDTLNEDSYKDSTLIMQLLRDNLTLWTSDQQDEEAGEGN

[3] = target: T2, 14-3-3γ (human (endogenous in U266)) (UniProt P61981); experiment: as above
T2 sequence: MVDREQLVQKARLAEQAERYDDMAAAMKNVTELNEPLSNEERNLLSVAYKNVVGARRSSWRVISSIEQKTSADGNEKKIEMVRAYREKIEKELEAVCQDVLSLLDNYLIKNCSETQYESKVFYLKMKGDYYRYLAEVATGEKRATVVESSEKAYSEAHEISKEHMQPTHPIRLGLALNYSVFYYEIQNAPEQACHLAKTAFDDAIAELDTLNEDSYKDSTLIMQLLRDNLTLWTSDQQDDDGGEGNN

[4] = target: T3, 14-3-3θ (human (endogenous in U266)) (UniProt P27348); experiment: as above
T3 sequence: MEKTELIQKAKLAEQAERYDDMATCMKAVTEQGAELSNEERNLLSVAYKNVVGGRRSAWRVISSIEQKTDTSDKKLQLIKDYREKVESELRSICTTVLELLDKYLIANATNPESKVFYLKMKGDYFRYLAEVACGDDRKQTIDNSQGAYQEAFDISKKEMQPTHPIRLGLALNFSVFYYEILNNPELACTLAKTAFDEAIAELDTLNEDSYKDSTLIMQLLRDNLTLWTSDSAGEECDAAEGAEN

[5] = target: 14-3-3ε (human (endogenous in U266)) (UniProt P62258); experiment: as above
[6] = target: 14-3-3β (human (endogenous in U266)) (UniProt P31946); experiment: as above
[7] = target: 14-3-3ζ (human (endogenous in U266)) (UniProt P63104); experiment: as above
[8] = target: 14-3-3ζ (human (endogenous in U266)) (UniProt P63104); experiment: co-IP; competition: immunoprecipitate of the 14-3-3ζ/Myc-Stat3 complex from U266 lysate incubated with various concentrations of R18 peptide for 60 min on ice; Western blot; only the binder purified

myc-Stat3 (688–770) (from UniProt P40763 688-770) (domain or fragment)
binding (HA-14-3-3ζ (human)): binds

Myc-Stat3 (1–465) (from UniProt P40763 1-465) (domain or fragment)
binding (HA-14-3-3ζ (human)): no binding

myc-Stat3 (688–770) S727A (from UniProt P40763 688-770) (domain or fragment)
binding (HA-14-3-3ζ (human)): no binding

Myc-Stat3 (1–130) (from UniProt P40763 1-130) (domain or fragment)
binding (HA-14-3-3ζ (human)): no binding

Myc-Stat3 (1–688) (from UniProt P40763 1-688) (domain or fragment)
binding (HA-14-3-3ζ (human)): no binding

Myc-Stat3 (1–585) (from UniProt P40763 1-585) (domain or fragment)
binding (HA-14-3-3ζ (human)): no binding

14-3-3ζ (from UniProt P63104 1-245)
binding (Myc-Stat3 (human)): binds | binding [1]: binds

signal transducers and activators of transcription 3 (Stat3) (from UniProt P40763 1-770)
binding [2]: no binding | binding [3]: binds weakly | binding [4]: binds weakly | binding [5]: binds weakly | binding [6]: binds | binding [7]: binds

Myc-Stat3 (1–320) (from UniProt P40763 1-320) (domain or fragment)
binding (HA-14-3-3ζ (human)): no binding

B1: R18 peptide (peptide)
peptide: PHCVPRDLSWLDLEANMCLP
binding [8]: binds
